# Measured values taken from the supplement of paper PMC8728848.
# Some of the results follow.
# B1: PX14375F-bfa-539-21-539 (Bacteroides fragilis) (protein)
# chain: EDFLQKDPPSSPSQSVFWQKKSDFESALAGTYSVMYSGVFSQIMPCLDGLTDNAIVQHSEGTYGWAKTIAQGDLTPNQGGFVTDIYGNCYKGIARVHILMEQLDQYTGSDISADEKKFMLAQCKALRGYFYSWLYQCYKEVPVVTQSLDLNTMYQPKATRAEVLNRVMTDYDEAISELPDKLYSDSQTSGRFTVSAVKALKARILLFDAYDSNGKAISSKMEEVLTLLQSIKGYSLAARVRDNFISEKQLASPEIMFSVRFLRPNLTHSMDLYYGAWAVLDPTRNMVDAFECTDGKPWGESPLTVRPDESILYGNDDALKKAERAKMFMNRDRRLYESVNHSMMANFVDDGFKDEEVQVNESNNKGPTGFSALKYVQPTDVTPGYSTVSDADIVVLRYAHVLLMIAEAENEAHGATTTALNAINEVRTRSGQPAIEAGISQDDLRERIRNEWRIETCFEGLRYFQLKRWKLMDKRVNGVEDPAYPGYIKVYKPAFEFFPIPQSEIDKAGGVLKQDPAYE
# How the values were obtained:
# Experiment in all cases: glycan array binding signal (z-score within array); higher = stronger binding
# Details in all cases: glycan notation: IUPAC condensed, linker removed
# [1] = target: Neu5Ac(a2-6)Gal(b1-4)GlcNAc(b1-3)Gal(b1-4)GlcNAc(b1-3)GalNAc
# Method in brief: (§1)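 Glycan array data came from 3228 arrays in the Consortium for Functional Glycomics database, and only arrays with an available protein sequence were kept. Glycan names were put into IUPAC-condensed notation, and columns mapping to the same glycan were averaged. The binding signal is a within-array Z-score, averaged across arrays of one protein sequence run at different concentrations or buffers and across linkers. A negative Z-score can be read as non-binding.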
# [2] = target: Neu5Ac(a2-6)Gal(b1-4)GlcNAc(b1-3)Gal(b1-4)GlcNAc(b1-3)[Neu5Ac(a2-6)Gal(b1-4)GlcNAc(b1-3)Gal(b1-4)GlcNAc(b1-6)]GalNAc
# Method in brief: as §1
# [3] = target: Neu5Ac(a2-6)Gal(b1-4)GlcNAc(b1-3)Gal(b1-4)GlcNAc(b1-6)[Gal(b1-3)]GalNAc
# Method in brief: as §1
# [4] = target: Neu5Ac(a2-6)Gal(b1-4)GlcNAc(b1-3)Gal(b1-4)[Fuc(a1-3)]GlcNAc(b1-3)Gal(b1-4)[Fuc(a1-3)]GlcNAc
# Method in brief: as §1
# [5] = target: Neu5Ac(a2-6)Gal(b1-4)GlcNAc(b1-3)GalNAc
# Method in brief: as §1
# [6] = target: Neu5Ac(a2-6)Gal(b1-4)GlcNAc(b1-3)[Neu5Ac(a2-6)Gal(b1-4)GlcNAc(b1-6)]GalNAc
# Method in brief: as §1
# [7] = target: Neu5Ac(a2-6)Gal(b1-4)GlcNAc(b1-6)GalNAc
# Method in brief: as §1
# [8] = target: Neu5Ac(a2-6)Gal(b1-4)GlcNAc(b1-6)[Gal(b1-3)GlcNAc(b1-3)]Gal(b1-4)Glc
# Method in brief: as §1
# [9] = target: Neu5Ac(a2-6)Gal(b1-4)GlcNAc(b1-6)[Gal(b1-3)]GalNAc
# Method in brief: as §1
# [10] = target: Neu5Ac(a2-6)Gal(b1-4)GlcNAc6S
# Method in brief: as §1
# [11] = target: Neu5Ac(a2-6)GalNAc
# Method in brief: as §1
# [12] = target: Neu5Ac(a2-6)GalNAc(b1-4)GlcNAc
# Method in brief: as §1
# [13] = target: Neu5Ac(a2-6)GalNAc(b1-4)GlcNAc6S
# Method in brief: as §1
# [14] = target: Neu5Ac(a2-6)GlcNAc(b1-4)GlcNAc
# Method in brief: as §1
# [15] = target: Neu5Ac(a2-6)GlcNAc(b1-4)GlcNAc(b1-4)GlcNAc
# Method in brief: as §1
# [16] = target: Neu5Ac(a2-8)Neu5Ac
# Method in brief: as §1
# [17] = target: Neu5Ac(a2-8)Neu5Ac(a2-3)Gal(b1-3)GalNAc(b1-4)[Neu5Ac(a2-3)]Gal(b1-4)Glc
# Method in brief: as §1
# [18] = target: Neu5Ac(a2-8)Neu5Ac(a2-3)Gal(b1-3)GalNAc(b1-4)[Neu5Ac(a2-8)Neu5Ac(a2-3)]Gal(b1-4)Glc
# Method in brief: as §1
# [19] = target: Neu5Ac(a2-8)Neu5Ac(a2-3)Gal(b1-4)Glc
# Method in brief: as §1
# [20] = target: Neu5Ac(a2-8)Neu5Ac(a2-3)Gal(b1-4)GlcNAc
# Method in brief: as §1
# [21] = target: Neu5Ac(a2-8)Neu5Ac(a2-3)[Gal(b1-3)GalNAc(b1-4)]Gal(b1-4)Glc
# Method in brief: as §1
# [22] = target: Neu5Ac(a2-8)Neu5Ac(a2-3)[GalNAc(b1-4)]Gal(b1-4)Glc
# Method in brief: as §1
# [23] = target: Neu5Ac(a2-8)Neu5Ac(a2-8)Neu5Ac
# Method in brief: as §1
# [24] = target: Neu5Ac(a2-8)Neu5Ac(a2-8)Neu5Ac(a2-3)Gal(b1-4)Glc
# Method in brief: as §1
# [25] = target: Neu5Ac(a2-8)Neu5Ac(a2-8)Neu5Ac(a2-3)[Gal(b1-3)GalNAc(b1-4)]Gal(b1-4)Glc
# Method in brief: as §1
# [26] = target: Neu5Ac(a2-8)Neu5Ac(a2-8)Neu5Ac(a2-3)[GalNAc(b1-4)]Gal(b1-4)Glc
# Method in brief: as §1
# [27] = target: Neu5Ac(a2-8)Neu5Ac(a2-8)Neu5Ac(a2-8)Neu5Ac(a2-3)[GalNAc(b1-4)]Gal(b1-4)Glc
# Method in brief: as §1
# [28] = target: Neu5Ac(a2-8)Neu5Gc(a2-3)Gal(b1-4)GlcNAc
# Method in brief: as §1
# [29] = target: Neu5Ac(b2-6)Gal(b1-4)GlcNAc
# Method in brief: as §1
# [30] = target: Neu5Ac(b2-6)GalNAc
# Method in brief: as §1
# [31] = target: Neu5Ac9Ac(a2-3)Gal(b1-3)GlcNAc
# Method in brief: as §1
# [32] = target: Neu5Ac9Ac(a2-3)Gal(b1-4)GlcNAc
# Method in brief: as §1
# [33] = target: Neu5Ac9Ac(a2-6)Gal(b1-4)GlcNAc
# Method in brief: as §1
# [34] = target: Neu5Gc(a2-3)Gal(b1-3)GlcNAc
# Method in brief: as §1
# [35] = target: Neu5Gc(a2-3)Gal(b1-3)[Fuc(a1-4)]GlcNAc
# Method in brief: as §1
# [36] = target: Neu5Gc(a2-3)Gal(b1-4)Glc
# Method in brief: as §1
# [37] = target: Neu5Gc(a2-3)Gal(b1-4)GlcNAc
# Method in brief: as §1
# [38] = target: Neu5Gc(a2-3)Gal(b1-4)GlcNAc(b1-3)Gal(b1-4)GlcNAc(b1-2)Man(a1-3)[Neu5Gc(a2-3)Gal(b1-4)GlcNAc(b1-3)Gal(b1-4)GlcNAc(b1-2)Man(a1-6)]Man(b1-4)GlcNAc(b1-4)GlcNAc
# Method in brief: as §1
# [39] = target: Neu5Gc(a2-3)Gal(b1-4)[Fuc(a1-3)]GlcNAc
# Method in brief: as §1
# [40] = target: Neu5Gc(a2-6)Gal(b1-4)GlcNAc
# Method in brief: as §1
# [41] = target: Neu5Gc(a2-6)GalNAc
# Method in brief: as §1
# [42] = target: Neu5Gc(a2-8)Neu5Ac(a2-3)Gal(b1-4)GlcNAc
# Method in brief: as §1
# [43] = target: Neu5Gc(a2-8)Neu5Gc(a2-3)Gal(b1-4)GlcNAc
# Method in brief: as §1
# [44] = target: Neu5Gc(a2-8)Neu5Gc(a2-3)Gal(b1-4)GlcNAc(b1-3)Gal(b1-4)GlcNAc
# Method in brief: as §1
# [45] = target: Neu5Gc(a2-8)Neu5Gc(a2-6)Gal(b1-4)GlcNAc
# Method in brief: as §1
# [46] = target: Neu5Gc(b2-6)Gal(b1-4)GlcNAc
# Method in brief: as §1
binder,measurement,setting,value
B1,glycan array binding signal (z-score),[1],-0.898
same,glycan array binding signal (z-score),[2],-0.22
same,glycan array binding signal (z-score),[3],-0.919
same,glycan array binding signal (z-score),[4],-0.045
same,glycan array binding signal (z-score),[5],-0.096
same,glycan array binding signal (z-score),[6],-0.565
same,glycan array binding signal (z-score),[7],-0.605
same,glycan array binding signal (z-score),[8],-0.588
same,glycan array binding signal (z-score),[9],0.16
same,glycan array binding signal (z-score),[10],-0.062
same,glycan array binding signal (z-score),[11],-0.642
same,glycan array binding signal (z-score),[12],-0.662
same,glycan array binding signal (z-score),[13],-0.188
same,glycan array binding signal (z-score),[14],0.231
same,glycan array binding signal (z-score),[15],-0.585
same,glycan array binding signal (z-score),[16],-0.05
same,glycan array binding signal (z-score),[17],0.117
same,glycan array binding signal (z-score),[18],-0.94
same,glycan array binding signal (z-score),[19],-0.457
same,glycan array binding signal (z-score),[20],-0.36
same,glycan array binding signal (z-score),[21],-0.369
same,glycan array binding signal (z-score),[22],0.33
same,glycan array binding signal (z-score),[23],-0.205
same,glycan array binding signal (z-score),[24],0.605
same,glycan array binding signal (z-score),[25],0.326
same,glycan array binding signal (z-score),[26],0.11
same,glycan array binding signal (z-score),[27],0.394
same,glycan array binding signal (z-score),[28],15.8
same,glycan array binding signal (z-score),[29],-0.545
same,glycan array binding signal (z-score),[30],-0.648
same,glycan array binding signal (z-score),[31],0.053
same,glycan array binding signal (z-score),[32],-0.407
same,glycan array binding signal (z-score),[33],-0.23
same,glycan array binding signal (z-score),[34],0.148
same,glycan array binding signal (z-score),[35],-0.435
same,glycan array binding signal (z-score),[36],0.697
same,glycan array binding signal (z-score),[37],-0.782
same,glycan array binding signal (z-score),[38],0.994
same,glycan array binding signal (z-score),[39],0.311
same,glycan array binding signal (z-score),[40],-0.915
same,glycan array binding signal (z-score),[41],-0.558
same,glycan array binding signal (z-score),[42],-0.605
same,glycan array binding signal (z-score),[43],-0.496
same,glycan array binding signal (z-score),[44],-0.032
same,glycan array binding signal (z-score),[45],-0.48
same,glycan array binding signal (z-score),[46],-0.376
